Results: PubChem BioAssay AID463173 (ICCB-Longwood Screening Facility, Harvard Medical School, 2010)
The whole screen tested about 52,000 compounds, of which about 4,300 (8.3%) were called active. Rule as the data show it: active = survival mostly below about 52% (no sharp cut-off); inactive = mostly above about 56%. Some of the results follow.

These compounds were tested on DeltatarO mutant (assay: S. aureus survival, RN4220 and DeltatarO strains – OD600, teichoic acid synthesis inhibitors, primary screen (AID 463173)). Conditions: S. aureus RN4220 wild type/DeltatarO growth, OD600, 18 h, stronger effect = lower value, screened at 18.75 µg/mL (by protocol).

Compound	survival
COC(=O)C1C2C=CC3(CN(C4CCCC4)C(=O)C13)O2 (configuration not stated)	inactive: 66%
CCCOc1ccc(Cn2c(=O)sc3ccccc32)cc1	active: -1%
Cc1cc(F)ccc1NC(=O)CN1C(=O)CCc2cc(S(=O)(=O)N3CCOCC3)ccc21	inactive: 76%
Cc1ccc(-n2ncc(C(=O)N(C)Cc3ccccc3)c2-n2cccc2)cc1	inactive: 71%
Cc1cc(Br)ccc1NC(=O)C(NS(=O)(=O)c1cccs1)c1ccccc1 (configuration not stated)	active: 31%
COc1ccc(Cl)cc1NC(=O)c1cc2nc(-c3ccc(C)cc3)cc(C(F)(F)F)n2n1	inactive: 78%
CC(CNC(=O)c1cc2ccccn2n1)c1ccccc1 (configuration not stated)	inactive: 95%
NS(=O)(=O)c1ccc(CCNC(=O)CCn2c(=O)c3cccn3c3cccnc32)cc1	inactive: 95%
COc1ccccc1N1CCN(CC(N)=O)CC1	inactive: 74%
COc1cccc(CNC(=O)c2ccc3c(c2)sc2nc(-c4ccccc4)cn23)c1OC	inactive: 55%
CCOc1ccccc1CNC(=O)c1cc2oc3ccccc3c2n1CC	active: 2%
Cc1ccc(-c2nc3scc(CCNS(=O)(=O)c4c(C)noc4C)n3n2)cc1	inactive: 117%
CSc1nc(C)cc(Nc2cccc(C(=O)O)c2)n1	inactive: 63%
N#Cc1ccc(S(=O)(=O)N2CCNCC2)cc1	inactive: 98%
CCOC(=O)C(C)Nc1ncnc2onc(C)c12 (configuration not stated)	inactive: 53%
COc1cc(NC(=O)CCCN2C(=O)CCn3nc(-c4cn(C)c5ccccc45)cc32)cc(OC)c1	inactive: 126%
O=C(c1cnc(N2CCCCC2)c2ccccc12)N1CCN(c2ccc(F)cc2)CC1	inactive: 79%
Fc1ccc(Nc2nc(-c3ccc(F)cc3)c3c(n2)-c2ccccc2OC3)cc1	inactive: 56%
CCC(=O)Nc1ccc2nc(C3CC3)n(Cc3ccc(Cl)cc3)c(=O)c2c1	inactive: 111%

Compound	survival
Cc1c(NC(=O)c2ccc(-c3ccc(F)cc3)o2)cccc1-c1nc2ncccc2o1	inactive: 55%
Cc1sc2c(c1C)c(=O)n(-c1ccc(Cl)cc1)c(=O)n2CC(=O)c1ccccc1	inactive: 86%
COc1cccc(C(=O)Nc2ccc3nc(SCC(=O)N4CCc5ccccc54)sc3c2)c1	inactive: 59%
CCN(CC)S(=O)(=O)c1ccc(N(C(=O)Cn2nnc3ccccc32)C(C(=O)NC2CCCC2)c2ccco2)cc1 (configuration not stated)	inactive: 77%
CC1CCc2nc(NC(=O)Cc3ccc(Cl)cc3)sc2C1 (configuration not stated)	active: 46%
CCOc1cccc(C2c3[nH]c4ccccc4c3CCN2C(=O)Cc2cccc(OCC)c2OCC)c1 (configuration not stated)	inactive: 80%
Cc1cc2c(cc1S(=O)(=O)CCC(=O)N(C)Cc1ccccc1)OCC(=O)N2	inactive: 81%
Cc1cc(C)cc(NC(=O)c2cc3c(=O)n(Cc4ccco4)ccc3nc2C)c1	inactive: 73%
CCOc1ccc(CNC23CN4CN(CN(C4)C2)C3)cc1	inactive: 79%
Cc1nc2c(-c3ccc(F)cc3)c(C)nn2c(C)c1CCC(=O)NCc1cccc(Cl)c1	inactive: 78%
CCC(=O)N1CCc2cc(Br)cc(S(=O)(=O)N3CCN(c4cccc(Cl)c4)CC3)c21	inactive: 48%
O=C(OCC1CCCO1)c1ccc2c(c1)N(Cc1cccc(F)c1)C(=O)c1ccccc1S2(=O)=O (configuration not stated)	inactive: 94%
COc1cccc(N2C(=O)CSC23C(=O)N(Cc2ccccc2F)c2ccccc23)c1 (configuration not stated)	inactive: 67%
O=C(c1ccccc1)N1CCN(S(=O)(=O)N2CCOCC2)CC1	inactive: 73%
Cc1cccc(NC(=O)C2CCN(S(=O)(=O)c3c(C)noc3/C=C/c3ccco3)CC2)c1C	inactive: 87%
COc1ccc(-c2nc(SCCOc3cc(C)ccc3C(C)C)n3[nH]c(=O)cc3n2)cc1	inactive: 55%
COc1ccc2c(CNCCc3ccccc3OC)c(C(=O)O)n(Cc3ccc(F)cc3Cl)c2c1	inactive: 109%
O=S(=O)(c1ccc(Nc2ccc(-c3ccccc3)nn2)cc1)N1CCCC1	inactive: 95%
CSc1cccc(NC(=O)N2CCN(S(=O)(=O)c3ccc4c(ccn4C)c3)CC2)c1	inactive: 58%

Compound	survival
CC1=C(C(=O)OC2CCCC2)C(c2ccc(Cl)cc2)CC(=O)N1 (configuration not stated)	inactive: 86%
O=C(CSc1nc(-c2ccccc2)no1)N1CCN(c2ccc(F)cc2)CC1	inactive: 86%
COc1ccc(C2=NS(=O)(=O)N(C)C(C(=O)NC(C)c3ccccc3)=C2)cc1OC (configuration not stated)	inactive: 75%
Cc1cc(C)cc(NC(=O)CN(c2cccc(C)c2C)S(=O)(=O)c2ccccc2)c1	inactive: 87%
COc1ccc(CCNC(=O)c2cc(-c3ccc(C)c(C)c3)nc3ccccc23)cc1OC	inactive: 120%
CCCn1c2ccc(C)cc2c2nnc(SCCN3CCCCC3)nc21	inactive: 187%
Cc1ccc(S(=O)(=O)Nc2nc3n(n2)C(c2ccc(Cl)cc2)C=C(c2ccccc2)N3)cc1 (configuration not stated)	active: 2%
O=C(CN1C(=O)CC(c2ccco2)Sc2ccccc21)Nc1ccc(OC(F)(F)F)cc1 (configuration not stated)	inactive: 73%
Cc1ccc(NC(=O)[C@H](Cc2ccccc2)N2Cc3ccccc3C2=O)cc1F	inactive: 84%
COc1ccc(C(=O)NCC(c2cccs2)S(=O)(=O)c2cccs2)cc1 (configuration not stated)	inactive: 71%
CCOc1ccc(C2CC(=O)c3c([nH]c(C(=O)OC4CCCCCC4)c3C)C2)cc1 (configuration not stated)	inactive: 61%
CC1=C(C(=O)OC2CCCCCC2)C(c2c(Cl)cccc2Cl)CC(=O)N1 (configuration not stated)	active: 32%
CCc1ccccc1NC(=O)Cn1c(=O)oc2ccccc21	inactive: 83%
CCCN(C(=O)Cn1nc(Cc2cccnc2)c2ccccc2c1=O)c1ccc(C(C)C)cc1	inactive: 66%
CC(=O)Nc1ccc(S(=O)(=O)N2CCN(c3nc4ccccc4s3)CC2)cc1	inactive: 95%
CCOc1ccc(CCNC(c2nnc(-c3ccccc3)o2)c2ccccc2Cl)cc1OCC (configuration not stated)	active: 1%
Cc1ccc(-c2cn3c(n2)sc2cc(C(=O)NC4CCCCCC4)ccc23)c(C)c1	inactive: 48%
Cc1ccc(Cl)cc1N1CCN(C(=O)C2CCN(S(=O)(=O)c3c(C)noc3/C=C/c3ccccc3F)CC2)CC1	inactive: 72%
Cc1cccc(NC(c2nnc(-c3ccccc3)o2)c2ccc(F)cc2Cl)c1C (configuration not stated)	inactive: 61%
